Results reported in PubChem BioAssay AID504832 (National Center for Advancing Translational Sciences (NCATS), 2011).
Out of some 310,000 compounds screened, about 18,000 (5.8%) were called active. The shares of active, inactive and inconclusive entries below differ from those in the screen. The call rests on the fitted dose curve; in most records, active means well fitted inhibition curve with a large enough effect; inconclusive means small, poorly fitted or top-dose-only effect, or another doubt; inactive means no such curve, though single readings can be large or run the other way. No potency is given beside an inconclusive call; the fits are too rough.
On the % scale 0 is the no-effect control and ±100 the full control effect; potency means the concentration at half of the fitted maximal effect; tags describe the fitted curve by direction and shape.

Experiment: Primary qHTS for delayed death inhibitors of the malarial parasite plastid, 48 hour incubation
Conditions: P. falciparum luciferase growth in erythrocytes; series mostly up to 28.7 µM; activity change, negative = inhibition: at the top concentration
How it was run: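 In quantitative HTS format, infected erythrocytes bearing luciferase-reporter parasites were treated for a single generation at 37 C. Luminescence after adding detection reagent served as the growth measure.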
With `Cc1ccc(NC2=CC(=O)OC(C)C2)cc1` (centres undefined) the Potency was inconclusive [inhibitor, partial curve, poor fit].
With `Cn1c(CC(=O)Nc2ccc(F)cc2)nnc1SCC(=O)Nc1nncs1` the Potency was inconclusive [inhibitor, partial curve, poor fit].
With `CCOc1ccccc1/C=N\Nc1cnn(Cc2ccccc2)c(=O)c1Cl` the Potency was inconclusive [inhibitor, partial curve].
For `Cc1ccc(S(=O)(=O)N2CCN(C(=O)c3ccc4nc[nH]c4c3)CC2)cc1`, the Potency was inconclusive [inhibitor, single point].
In the case of `COc1ccccc1NC(=S)NC(=O)c1ccc(Cn2cc(Br)cn2)cc1`, the Potency is reported as inconclusive [inhibitor, partial curve, poor fit].
In the case of `Cc1c(NS(=O)(=O)c2ccc(Br)cc2)c(=O)n(-c2ccccc2)n1C`, the “activity change, negative = inhibition” value is reported as inactive: -20.8%.
In the case of `O=C(NNC(=O)c1ccccc1[N+](=O)[O-])Nc1ccc(Cl)cc1`, the “activity change, negative = inhibition” value is reported as inactive: 16.3%.
In the case of `COc1ccc(CC(=O)N2CCc3cc(OC)c(OC)cc3C2C)c(OC)c1` (centres undefined), the Potency is reported as inconclusive [inhibitor, single point].
With `Cc1ccc(S(=O)(=O)N2[C@@H](c3ccc(Cl)cc3)C(C(=O)O)=CC[C@H]2c2ccc(Cl)c(Cl)c2)cc1` the Potency was inconclusive [inhibitor, full curve, poor fit].
For `NS(=O)(=O)c1ccc(CNC(=O)/C=C/c2c(F)cccc2Cl)cc1`, the “activity change, negative = inhibition” value was inactive: 7.42%.
For `Cc1ccc2nc(C)cc(OCC(=O)O)c2c1`, the “activity change, negative = inhibition” value was inactive: -0.0638%.
For `Cc1ccccc1CC(=O)NC1CCCCCC1`, the “activity change, negative = inhibition” value was inactive: 0.0372%.
With `S=C(Nc1ccccc1)N1CCn2cccc2C1c1cccnc1` (centres undefined) the “activity change, negative = inhibition” value was inactive: 3.11%.
With `CCOc1cc(NC(=S)NCC2CCCO2)c(OCC)cc1NC(=O)c1ccccc1F` (centres undefined) the Potency was inconclusive [inhibitor, single point].
With `Cc1ccccc1Oc1cc(NC(=O)Cn2cnc([N+](=O)[O-])c2)cc([N+](=O)[O-])c1` the Potency was active: 10.4 µM.
In the case of `COc1ccc(-n2nnnc2-c2cccnc2)cc1`, the “activity change, negative = inhibition” value is reported as inactive: 0.107%.
In the case of `CCOc1ccc(/C=N/NC(=S)NC2CC3C=CC2C3)cc1` (centres undefined), the Potency is reported as inconclusive [inhibitor, partial curve, poor fit].
For `Cc1cccc(N(CC(=O)N/N=C/c2cc([N+](=O)[O-])ccc2Cl)S(C)(=O)=O)c1C`, the Potency was inconclusive [inhibitor, partial curve, poor fit].
For `CCCOc1ccc(/C=C/C(=O)Nc2ccc([N+](=O)[O-])cc2C)cc1OC`, the Potency was inconclusive [inhibitor, partial curve, poor fit].
